In the supplement of paper PMC4967469:
pIC50: −log10 of the molar value. Lines with a small IC50 respond at low doses; a limit (>, <) means that the fit lies beyond the doses tested. For AUC the same curve is integrated over the 256-fold range of doses and scaled to a fraction: 1 means no effect, lower means more sensitive. For part of these data: A top dose marked as inferred is not printed in the source and was worked back from the curve model. For part of these data: Drugs with an entry number were screened twice under separate entries, and the two screens often disagree.

Tests used:
Assay in all cases: Viability of human cancer cell lines after 72 h of drug (GDSC screen)
TW-37 = compound: CC(C)c1ccccc1Cc1cc(C(=O)Nc2ccc(S(=O)(=O)c3ccccc3C(C)(C)C)cc2)c(O)c(O)c1O [TW-37]; details: top dose 5 µM
Protocol: (§1)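 Human cancer cell lines in 384-well plates, medium with 10% serum, drug for 72 h over a 256-fold dose range (nine 2-fold or five 4-fold steps up to the top dose). Adherent lines were fixed and stained with the nucleic acid dye Syto60, suspension lines read with resazurin; signal relative to control wells, capped at 0 and 100%. One two-parameter sigmoid per drug and line, fitted in a mixed model over all curves with the slope shared within a line.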

Gemcitabine = compound: Nc1ccn([C@@H]2O[C@H](CO)[C@@H](O)C2(F)F)c(=O)n1 [Gemcitabine]; details: top dose 1.024 µM
Protocol: as §1

T0901317 = compound: O=S(=O)(c1ccccc1)N(CC(F)(F)F)c1ccc(C(O)(C(F)(F)F)C(F)(F)F)cc1 [T0901317]; details: top dose 10.24 µM; top dose inferred
Protocol: as §1

KIN001-270 = compound: Cc1ccc(Nc2cc(-c3cccc(N4C(=O)c5ccccc5C4=O)c3)ncn2)cc1NS(C)(=O)=O [KIN001-270]; details: top dose 20 µM; top dose inferred
Protocol: as §1

LFM-A13 = compound: C/C(O)=C(\C#N)C(=O)Nc1cc(Br)ccc1Br [LFM-A13]; details: top dose 16 µM; top dose inferred
Protocol: as §1

Bicalutamide = compound: CC(O)(CS(=O)(=O)c1ccc(F)cc1)C(=O)Nc1ccc(C#N)c(C(F)(F)F)c1 [Bicalutamide]; details: top dose inferred
Protocol: as §1

MP470 = compound: S=C(NCc1ccc2c(c1)OCO2)N1CCN(c2ncnc3c2oc2ccccc23)CC1 [MP470]; details: top dose 20 µM; top dose inferred
Protocol: as §1

AUY922 = compound: CCNC(=O)c1noc(-c2cc(C(C)C)c(O)cc2O)c1-c1ccc(CN2CCOCC2)cc1 [AUY922]; details: top dose 0.256 µM; top dose inferred
Protocol: as §1

[1] = top dose 1.024 µM, screen: GDSC drug entry 150
[2] = top dose 10 µM, screen: GDSC drug entry 1502

Cell Line: ML-1 (thyroid, adherent)
- AUC (TW-37): 0.782
- pIC50 (TW-37): 5.61
- AUC (Gemcitabine): 0.191
- pIC50 (Gemcitabine): 8.20
- AUC (T0901317): 0.984
- pIC50 (T0901317): < 4.99
- AUC (KIN001-270): 0.984
- pIC50 (KIN001-270): < 4.70
- AUC (LFM-A13): 0.884
- pIC50 (LFM-A13): < 4.80
- AUC (Bicalutamide; [1]): 0.984
- pIC50 (Bicalutamide; [1]): < 5.99
- AUC (Bicalutamide; [2]): 0.965
- pIC50 (Bicalutamide; [2]): < 5.00
- AUC (MP470): 0.954
- pIC50 (MP470): < 4.70
- AUC (AUY922): 0.469
- pIC50 (AUY922): 7.89

Cell Line: MS751 (cervix, adherent)
- AUC (TW-37): 0.541
- pIC50 (TW-37): 6.40
- AUC (Gemcitabine): 0.579
- pIC50 (Gemcitabine): 6.99
- AUC (T0901317): 0.989
- pIC50 (T0901317): < 4.99
- AUC (KIN001-270): 0.99
- pIC50 (KIN001-270): < 4.70
- AUC (LFM-A13): 0.988
- pIC50 (LFM-A13): < 4.80
- AUC (Bicalutamide; [1]): 0.99
- pIC50 (Bicalutamide; [1]): < 5.99
- AUC (Bicalutamide; [2]): 0.989
- pIC50 (Bicalutamide; [2]): < 5.00
- AUC (MP470): 0.948
- pIC50 (MP470): < 4.70
- AUC (AUY922): 0.842
- pIC50 (AUY922): 6.80

Cell Line: NCI-H196 (small cell lung carcinoma, adherent)
- AUC (TW-37): 0.678
- pIC50 (TW-37): 6.00
- AUC (Gemcitabine): 0.973
- pIC50 (Gemcitabine): < 5.99
- AUC (T0901317): 0.988
- pIC50 (T0901317): < 4.99
- AUC (KIN001-270): 0.984
- pIC50 (KIN001-270): < 4.70
- AUC (LFM-A13): 0.987
- pIC50 (LFM-A13): < 4.80
- AUC (Bicalutamide; [1]): 0.988
- pIC50 (Bicalutamide; [1]): < 5.99
- AUC (Bicalutamide; [2]): 0.987
- pIC50 (Bicalutamide; [2]): < 5.00
- AUC (MP470): 0.915
- pIC50 (MP470): < 4.70
- AUC (AUY922): 0.945
- pIC50 (AUY922): < 6.59

Cell Line: NCI-H358 (lung adenocarcinoma, adherent)
- AUC (TW-37): 0.699
- pIC50 (TW-37): 5.92
- AUC (Gemcitabine): 0.318
- pIC50 (Gemcitabine): 7.73
- AUC (T0901317): 0.982
- pIC50 (T0901317): < 4.99
- AUC (KIN001-270): 0.962
- pIC50 (KIN001-270): < 4.70
- AUC (LFM-A13): 0.981
- pIC50 (LFM-A13): < 4.80
- AUC (Bicalutamide; [1]): 0.983
- pIC50 (Bicalutamide; [1]): < 5.99
- AUC (Bicalutamide; [2]): 0.979
- pIC50 (Bicalutamide; [2]): < 5.00
- AUC (MP470): 0.915
- pIC50 (MP470): < 4.70
- AUC (AUY922): 0.56
- pIC50 (AUY922): 7.63

Cell Line: NCI-H520 (lung squamous cell carcinoma, adherent)
- AUC (TW-37): 0.602
- pIC50 (TW-37): 6.22
- AUC (Gemcitabine): 0.329
- pIC50 (Gemcitabine): 7.68
- AUC (T0901317): 0.983
- pIC50 (T0901317): < 4.99
- AUC (KIN001-270): 0.888
- pIC50 (KIN001-270): < 4.70
- AUC (LFM-A13): 0.977
- pIC50 (LFM-A13): < 4.80
- AUC (Bicalutamide; [1]): 0.987
- pIC50 (Bicalutamide; [1]): < 5.99
- AUC (Bicalutamide; [2]): 0.985
- pIC50 (Bicalutamide; [2]): < 5.00
- AUC (MP470): 0.914
- pIC50 (MP470): < 4.70
- AUC (AUY922): 0.596
- pIC50 (AUY922): 7.53

Cell Line: NCI-H522 (lung adenocarcinoma, adherent)
- AUC (TW-37): 0.773
- pIC50 (TW-37): 5.64
- AUC (Gemcitabine): 0.245
- pIC50 (Gemcitabine): 8.00
- AUC (T0901317): 0.972
- pIC50 (T0901317): < 4.99
- AUC (KIN001-270): 0.978
- pIC50 (KIN001-270): < 4.70
- AUC (LFM-A13): 0.964
- pIC50 (LFM-A13): < 4.80
- AUC (Bicalutamide; [1]): 0.984
- pIC50 (Bicalutamide; [1]): < 5.99
- AUC (Bicalutamide; [2]): 0.954
- pIC50 (Bicalutamide; [2]): < 5.00
- AUC (MP470): 0.976
- pIC50 (MP470): < 4.70
- AUC (AUY922): 0.512
- pIC50 (AUY922): 7.76

Cell Line: NCI-H596 (lung adenocarcinoma, adherent)
- AUC (TW-37): 0.806
- pIC50 (TW-37): 5.45
- AUC (Gemcitabine): 0.621
- pIC50 (Gemcitabine): 6.82
- AUC (T0901317): 0.982
- pIC50 (T0901317): < 4.99
- AUC (KIN001-270): 0.98
- pIC50 (KIN001-270): < 4.70
- AUC (LFM-A13): 0.955
- pIC50 (LFM-A13): < 4.80
- AUC (Bicalutamide; [1]): 0.982
- pIC50 (Bicalutamide; [1]): < 5.99
- AUC (Bicalutamide; [2]): 0.977
- pIC50 (Bicalutamide; [2]): < 5.00
- AUC (MP470): 0.982
- pIC50 (MP470): < 4.70
- AUC (AUY922): 0.572
- pIC50 (AUY922): 7.57
